# This is one part of the list.
# B1: chr6:117881578:117881579:-_ENSG00000047932_ENST00000052569|hu_hu|FALSE|FALSE (ssRNA)
# RNA: GGGAGUUCUACAGUCCGACGAUCUUUAAUGUAGAAGAUGCCAUCUUUAUUUACAGGCUAAUAAAAAAAUAUUAAACUCAACUAGAUAUAAUACAUUAUCAUAAAUGCAAUAGAUUUGAGGCCAACCAUAAGUGUAAGACUGGACAACAGAGGAUUGAGCAUCA
# B2: chr14:66974463:66974464:+_ENSMUSG00000022044_ENSMUST00000074523|mus_hu|mus_mus_mus_hu_False|1_48 (ssRNA)
# RNA: GGGAGUUCUACAGUCCGACGAUCUUGUAGGACGACUUAUUCAGGGGAUCGGCCAGGAAGCAGGAGCAGAACAAGGACACCAGCGGGAGUUCCUUCAUCUUCUCUUUGUAGGCAGCAAGGGUCAUGUUUCUGGGAUCCUGGUGGCAACAGAGGAUUGAGCAUCA
# B3: chr12:36856662:36856663:-_ENSMUSG00000020547_ENSMUST00000020856|mus_hu|FALSE|FALSE (ssRNA)
# RNA: GGGAGUUCUACAGUCCGACGAUCAAGCAUACUGCCAGCCACCAGGAUAUCGAAGAGUGUGUCUGCAUAGCGACGAUAAUCUAAUCUUGAGCCUGUAGAGUCCAGAAAUUUGGCUACAGCUUCAAGGUCAUCACCAGCCUCAUUCAACAGAGGAUUGAGCAUCA
# B4: chr22:24237240:24237241:+_ENSG00000240972_ENST00000215754|hu_hu|FALSE|FALSE (ssRNA)
# RNA: GGGAGUUCUACAGUCCGACGAUCCUCUUAGGCGAAGGUGGAGUUGUUCCAGCCCACAUUGGCCGCGUUCAUGUCGUAAUAGUUGAUGUAGACCCUGUCCGGGCUGAUGCGCAGGCGCUCGGCCAGCAGGCCGCACAGCAGCUUCAACAGAGGAUUGAGCAUCA
# B5: chr9:119461815:119461816:+_ENSG00000119401_ENST00000373983|hu_hu|motif|central (ssRNA)
# RNA: GGGAGUUCUACAGUCCGACGAUCCUUAGGAGUUAGGGCUAUGCCCACCGGACAGGUAAGUCCCUCUCGAAUAAGGACACGGUAGCCCCCACCCUUAGGAAAAUGGAGAAUUUCCUUGCGACUACUGUCAGCCACGAUGAGAUCCAACAGAGGAUUGAGCAUCA
# B6: 90390320_90390440_12308_CDS_ENSG00000112159_ENST00000369393|human|control|control (ssRNA)
# RNA: GGGAGUUCUACAGUCCGACGAUCAAGGCCCUCCACAAGGCGAGGCAGGGGGCUCUCCUUCAUGAACGUCAGGCACAUCUUCCUCAUGCGUUUCCUGAGCUUUGGCAAGCGACGCAGAAGCUCCCCUUCCAAGCCGGAAGGAGCCAACAGAGGAUUGAGCAUCA
# B7: chr2:169020305:169020306:-_ENSG00000198648_ENST00000355999|hu_hu|FALSE|FALSE (ssRNA)
# RNA: GGGAGUUCUACAGUCCGACGAUCCUGACCGUUUCUGUGUAGAUAGUCUAAGCCUUCCAAAACCUCUUUAAGAAUUGUUGCUAUUAUUGCCUCUUCCAGAACUCCAUUCUUGUGUUCUCCUCGGUUGACAAUGUAUUUUAUGAUCAACAGAGGAUUGAGCAUCA
# B8: chr22:32879901:32879902:+_ENSG00000100225_ENST00000397426|hu_mus|hu_hu_hu_mus_False|28_28 (ssRNA)
# RNA: GGGAGUUCUACAGUCCGACGAUCCUCUUCCAUACUCAUGGCAUCCUGAAUUGACUCAGCUUCAACAUUUUGACUAGGCCCUUCCAUACUGUCAUCAGUCCAGGCAUCAGACUGGGCGGCCUGUCCUUGGGAUGAAUCAGUCCCCAACAGAGGAUUGAGCAUCA
# B9: chr1:109605286:109605287:-_ENSG00000197780_ENST00000461096|hu_mus|hu_hu_hu_mus_True|8_58 (ssRNA)
# RNA: GGGAGUUCUACAGUCCGACGAUCAAGUUUCAGAGUAACAUUCAGUAACCUCUUUAAAUGCAAUUAUCCUUAUUAUAAACUAAGGGCAAUAAUAAUUUAAUACCGUAAGUGAACUACACACAAAGCCGUGUAUUCAGAAAUGGUCAACAGAGGAUUGAGCAUCA
# B10: chr3:196089228:196089229:-_ENSG00000163960_ENST00000296328|hu_mus|motif|central (ssRNA)
# RNA: GGGAGUUCUACAGUCCGACGAUCUUCCCUUUUUCCAUCUGGGUACCGCAGCAUCAGCUGUGCUUUUGGUCCAUUUACAUCGGUCCCCUCCACUAUUCCAUCUGACUUUUCAGGUGACAUCUCCAAGACCUCAGAAUCCAUGGACAACAGAGGAUUGAGCAUCA
# B11: 44187758_44190831_1501_CDS_ENSG00000138095_ENST00000260665|human|control|control (ssRNA)
# RNA: GGGAGUUCUACAGUCCGACGAUCCAGACAUCCAUUUUCCUGCAAAAUGGCUCGUGCUGAGUUUACACUAUCAAAGCAUGGAAUCACAUAAUCUGUAUAUGUUUCCUGAUCAGGAUGUACUCCCAAUUCUUGCAUUCCUUUGAGCAACAGAGGAUUGAGCAUCA
# B12: chr6:13037117:13037118:+_ENSMUSG00000029571_ENSMUST00000031556|mus_mus|motif|central (ssRNA)
# RNA: GGGAGUUCUACAGUCCGACGAUCGCGUGUACUGUACUGUUUGUGAAUGGGCAUCGACACAUUUGUAUGUGUGUGUACACGGUAUAUGUGGUAUUGUACUGUCCGUGAACGGUCAUCCGAGAAGAGUGCCAGUUCUCUCCGCCUCAACAGAGGAUUGAGCAUCA
# B13: chr7:54825262:54825263:-_ENSG00000132432_ENST00000352861|hu_hu|hu_hu_hu_mus_False|8_8 (ssRNA)
# RNA: GGGAGUUCUACAGUCCGACGAUCCUGCCGGCUGGGCUCCACAAACUGCAUUACCUGAUCCAUGUUUGUUGGAUGGCGGAUUGAGAGCGUAGAGACACGUAGCUCAGGAGAGAACCGAGCCCAACGGCACCGGAACCUGGCAACCAACAGAGGAUUGAGCAUCA
# B14: 134633473_134633593_1156_CDS_ENSMUSG00000042423_ENSMUST00000048896|mouse|control|control (ssRNA)
# RNA: GGGAGUUCUACAGUCCGACGAUCGGCAGCAGCCAUGGCCCCUGGUCCAGUCAACUCCUCACCUGCCUCAUAGAAGCGUGGUGGCCUGGCCAGGCGUGGGGGCCCUGCCAACCAGGUUGGCUCUGGGAAGCCUGCACAGCGCUCCAACAGAGGAUUGAGCAUCA
# Target: T1, UNK ZnF1-3 (human, UniProt Q9C0B0 31-174)
# T1 sequence: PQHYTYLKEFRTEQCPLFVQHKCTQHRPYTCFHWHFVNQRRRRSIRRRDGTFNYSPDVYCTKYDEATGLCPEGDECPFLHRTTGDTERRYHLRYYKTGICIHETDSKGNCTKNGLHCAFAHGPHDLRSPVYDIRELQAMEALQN
# Assay: nsRBNS (natural sequence RNA bind-n-seq); RBNS binding buffer (assumed for nsRBNS): 25 mM Tris pH 7.5, 150 mM KCl, 3 mM MgCl2, 0.01% Triton X-100, 500 ug/ml BSA, 20 U/ml SUPERase-In, 4 C; UNK is unkempt and MSI1 is Musashi-1; names of the RNAs are library labels; protein concentration not given here; high values mean tight binding
row,Binder,binding signal [enrichment R]
1,B1,1.72
2,B2,1.72
3,B3,1.14
4,B4,0.573
5,B5,0.558
6,B6,0.772
7,B7,0.518
8,B8,0.98
9,B9,0.626
10,B10,0.724
11,B11,0.697
12,B12,0.746
13,B13,1.59
14,B14,0.965

# — PMC12136788
